# Experimental data published in paper PMC12820563, “FoxP3 forms a head-to-head dimer in vivo and stabilizes its multimerization on adjacent microsatellites”.
# This is one part of the list.
# Target: T1, MBP-FoxP1dN (Mus musculus, UniProt P58462 326-579)
# T1 sequence: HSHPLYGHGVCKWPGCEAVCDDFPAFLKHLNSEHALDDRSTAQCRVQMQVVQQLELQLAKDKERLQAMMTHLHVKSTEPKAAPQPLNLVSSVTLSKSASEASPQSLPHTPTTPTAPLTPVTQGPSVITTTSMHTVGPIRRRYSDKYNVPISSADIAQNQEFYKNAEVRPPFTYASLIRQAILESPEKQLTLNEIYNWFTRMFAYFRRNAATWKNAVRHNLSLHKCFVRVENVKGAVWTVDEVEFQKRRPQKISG
# Experiment: PD-seq (MBP pull-down with sequencing); 20 mM Tris-HCl pH 7.5, 100 mM NaCl, 1.5 mM MgCl2, 0.4 uM protein, 0.1 uM dsDNA library, 30 min, room temperature, amylose pull-down; high values mean tight binding
# Conditions: protein: recombinant; tags: His6-MBP; chain copies: 2; dsDNA, one strand shown
# Outline: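 Protein and DNA were mixed at 0.4 µM and 0.1 µM and held for 30 min at room temperature in Tris pH 7.5 buffer with NaCl and MgCl2; the protein was a His6-MBP-tagged, N-terminally truncated mouse FoxP3 or FoxP1 fragment from E. coli, and the DNA a Klenow-filled double-stranded degenerate library. Amylose resin captured the complexes, which were washed three times. Binding is read as reads-per-million enrichment of pull-down versus input after Illumina sequencing, with replicates pooled.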
row,Sequence,binding signal
1,GATGATTGTTCTCCCAGCTGATGAATTTCGAAGATCGAGTAAACAAATTTTCCTAATCTTTCTGTTCAAGCGCCATCTAC,0.875 RPM ratio (pull-down/input)
2,GATGATTGTTCTCCCAGCTGATGAATTCGCCAAGTCGAGTAAACAAATTTTCCTAATCTTTCTGTTCAAGCGCCATCTAC,0.735 RPM ratio (pull-down/input)
3,GATGATTGTTCTCCCAGCTGATGAATTGGAACAGTCGAGTAAACAAATTTTCCTAATCTTTCTGTTCAAGCGCCATCTAC,0.847 RPM ratio (pull-down/input)
4,GATGATTGTTCTCCCAGCTGATGAATTCCTCCAATCGAGTAAACAAATTTTCCTAATCTTTCTGTTCAAGCGCCATCTAC,0.937 RPM ratio (pull-down/input)
5,GATGATTGTTCTCCCAGCTGATGAATTAACGGATTCGAGTAAACAAATTTTCCTAATCTTTCTGTTCAAGCGCCATCTAC,0.846 RPM ratio (pull-down/input)
6,GATGATTGTTCTCCCAGCTGATGAATTTTCCCTTTCGAGTAAACAAATTTTCCTAATCTTTCTGTTCAAGCGCCATCTAC,0.93 RPM ratio (pull-down/input)
7,GATGATTGTTCTCCCAGCTGATGAATTAACCTTTTCGAGTAAACAAATTTTCCTAATCTTTCTGTTCAAGCGCCATCTAC,0.881 RPM ratio (pull-down/input)
8,GATGATTGTTCTCCCAGCTGATGAATTCGCATGATCGAGTAAACAAATTTTCCTAATCTTTCTGTTCAAGCGCCATCTAC,0.921 RPM ratio (pull-down/input)
9,GATGATTGTTCTCCCAGCTGATGAATTATCAGCATCGAGTAAACAAATTTTCCTAATCTTTCTGTTCAAGCGCCATCTAC,1.17 RPM ratio (pull-down/input)
10,GATGATTGTTCTCCCAGCTGATGAATTCTCGCTGTCGAGTAAACAAATTTTCCTAATCTTTCTGTTCAAGCGCCATCTAC,0.87 RPM ratio (pull-down/input)
11,GATGATTGTTCTCCCAGCTGATGAATTTCGCGGGTCGAGTAAACAAATTTTCCTAATCTTTCTGTTCAAGCGCCATCTAC,0.737 RPM ratio (pull-down/input)
12,GATGATTGTTCTCCCAGCTGATGAATTGGGCCCGTCGAGTAAACAAATTTTCCTAATCTTTCTGTTCAAGCGCCATCTAC,0.81 RPM ratio (pull-down/input)
13,GATGATTGTTCTCCCAGCTGATGAATTCCTGGGGTCGAGTAAACAAATTTTCCTAATCTTTCTGTTCAAGCGCCATCTAC,0.725 RPM ratio (pull-down/input)
14,GATGATTGTTCTCCCAGCTGATGAATTGGGCGAATCGAGTAAACAAATTTTCCTAATCTTTCTGTTCAAGCGCCATCTAC,0.944 RPM ratio (pull-down/input)
15,GATGATTGTTCTCCCAGCTGATGAATTTGGATATTCGAGTAAACAAATTTTCCTAATCTTTCTGTTCAAGCGCCATCTAC,0.97 RPM ratio (pull-down/input)
16,GATGATTGTTCTCCCAGCTGATGAATTTAGTTTATCGAGTAAACAAATTTTCCTAATCTTTCTGTTCAAGCGCCATCTAC,1.89 RPM ratio (pull-down/input)
17,GATGATTGTTCTCCCAGCTGATGAATTGCTATAGTCGAGTAAACAAATTTTCCTAATCTTTCTGTTCAAGCGCCATCTAC,1.08 RPM ratio (pull-down/input)
18,GATGATTGTTCTCCCAGCTGATGAATTCGAATAATCGAGTAAACAAATTTTCCTAATCTTTCTGTTCAAGCGCCATCTAC,1.13 RPM ratio (pull-down/input)
